Results as given in the RNAGym collection of RNA variant scans (doi:10.1073/pnas.2313332121).
This sample is rich in variants without activity.

B1: TPR 5TU (parent)
chain: GGAUCUUCUCGAUCUAACAAAAAAGACAAAUCUGCCACAAAGCUUGAGAGCAUCUUCGGAUGCAGAGGCGGCAGCCUUCGGUGGCGCGAUAGCGCCAACGUUCUCAACUAUGACACGCAAAACGCGUGCUCCGUUGAAUGGAGUUUAUCAUG

Variants of: B1
Assay: polymerase ribozyme fitness, log enrichment relative to wild type (log ratio); higher = more active; in vitro selection for triplet polymerase activity
In short: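 A heterodimeric triplet polymerase ribozyme had each of its subunits mutagenized by PCR into a library, which was transcribed. One round of in vitro selection, done in triplicate, annealed each library with a biotinylated primer, its partner subunit and triplets, then incubated it frozen at −7 °C before gel excision of extended constructs, streptavidin-bead capture and RT-PCR. Fitness is the logarithm of genotype enrichment relative to wild-type enrichment, based on Illumina sequencing of inputs and outputs and inverse-variance-weighted replicate averages. A base-2 logarithm is used, and genotypes were kept only with ≥10 input reads and ≥1 read per output.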

Variant	polymerase ribozyme fitness (log ratio)
A49C A91U U101A A120U	≤ -4.2
A49C U90A G92A C103G G117U A138G	≤ -4.2
G48A G70A U82C G86A C103A	≤ -4.2
A49C G74U G81C C99G A137U	≤ -4.2
A49U G50C U90G A106G G128U	≤ -4.2
G48A A66C G71A C95U U104G U111G C118U U135G A147U	≤ -4.2
G48A U56A C85U A110G G141U	≤ -4.2
A49G C85U G92C G94U C95U	≤ -4.2
A49C C57U C79G C87U	≤ -4.2
G48C C75U U77C C93G A122U A150C	≤ -4.2
A49C U78G C87A	≤ -4.2
G48A C87G C118U	≤ -4.2
G48C C87U A98G C103A U111C G124A	≤ -4.2
A49C U56A C69A C99A	≤ -4.2
A49G C79A C87G	≤ -4.2
G48A C85A G133U	≤ -4.2
A49C G50C G80U C85G U151A	≤ -4.2
G48C A66C G71C A98U A150C	≤ -4.2
A49U U77C C93A G124C	≤ -4.2
A49C U53A G59A G68U G88U U134G	≤ -4.2
G48C U77A C87G	≤ -4.2

Variant	polymerase ribozyme fitness (log ratio)
G48C G59C G92U C99G A106U	≤ -4.2
G48A U56A A107G	≤ -4.2
G48A U61A G74U G83C A91U G141A	≤ -4.2
A49C C51U	≤ -4.2
A49U A52G G94A C105U C114U C118G G140A G143C	≤ -4.2
A49C U55G A60U G65A G74C U77A	≤ -4.2
A49U G58C C75G C118G G124A	≤ -4.2
A49C C63U G84A	≤ -4.2
A49C G74U A122U C131G U145A U146A	≤ -4.2
A49C A91G A107G C114U	≤ -4.2
G48A U90C U135A U144A	≤ -4.2
A49C C118U G141C	≤ -4.2
A49U U53A U55A C76U A91U C93G C116G A122U C129G G141U C149G	≤ -4.2
A49C C85A C93U G124U C125G U146G	≤ -4.2
A49C G59C A89U	≤ -4.2
A49G G50A G84A A97G	-3.11
G48A A73G C79G C87A G88A G117A A121C	≤ -4.2
G48C A89U C93G A110U C125U	≤ -4.2
A49G C54A C116G A121U	-2.34
A49C A52G U53A A91G C93A U127G A142C	≤ -4.2
A49G U53A U144G	-0.883

Variant	polymerase ribozyme fitness (log ratio)
G48C C76A C93U G94A A138C G140A U146G	≤ -4.2
A49U A73U G88A C105A U144A	≤ -4.2
A49C C51A C63G G68A C79G U90A A91U C95G C108U C114U U135G	≤ -4.2
A49C A52C G65U C69G C93U	≤ -4.2
A49C A89C	≤ -4.2
G48A A52U G140C	≤ -4.2
G48U C75G A91C C96A	≤ -4.2
A49C C54A C72G C79U C87U A89G C93U C96U C103A	≤ -4.2
A49C C116A G143C	≤ -4.2
A49C C75A	≤ -4.2
A49C A64C A97G G141A	≤ -4.2
A49C C54A G68A C116G	≤ -4.2
A49U A52G U78A A97G C99G	≤ -4.2
G48A G136C	-2.57
A49C G62A G84U G126A	≤ -4.2
A49C G81C	≤ -4.2
A49U A60U C76G A115U C123A G128U	≤ -4.2
G48C U61A U77A C125U U144A	≤ -4.2
A49C A66U G94C	≤ -4.2
A49C G83A C129G	≤ -4.2
A49C A73U C93U	≤ -4.2

Variant	polymerase ribozyme fitness (log ratio)
G48A U82C C85A	≤ -4.2
A49C C103A G141C	≤ -4.2
G48U C57U G117A G124A G141C	≤ -4.2
G48C A91U G143C	≤ -4.2
A49C A66U C85G G136A	≤ -4.2
G48C U61A U78G C103A A110C A113C A147U	≤ -4.2
A49C C87A C125G	≤ -4.2
A49G G86C A107C C125A	≤ -4.2
G48C A60C C72U	≤ -4.2
G48A C96U	-0.356
G48U C95U C103G C132A U148G	≤ -4.2
A49G G65A G84U U104C C114U	≤ -4.2
A49C G88U C132A	≤ -4.2
G48C A52U G58C C76G A91C C93A U148G	≤ -4.2
G48U A52G C76A G84U G88A C123A G143C	≤ -4.2
A49U C85A C103G	≤ -4.2
A49C C51A A97U U109G C125G U135C A147G	≤ -4.2
A49G C85G U109G	≤ -4.2
A49C C96G	-3.45
A49G U55G G88A U139C U145A	≤ -4.2
A49C C51A C57U G70A C85G U109G G126A U145A	≤ -4.2
